Results as given in the RNAGym collection of RNA variant scans (doi:10.7554/elife.90254).
Read counts are not given, so values of variants with three or more changes are uncertain.

B1: LINE1-mini (parent)
chain: GGCAGAGCUCAACACAGCGUGGCAAAGUGGCUGUGGCUAGACUGCC

Variants of: B1
Experiment: self-cleavage, relative activity (ratio to wild type); higher = more cleavage; in vitro, sequencing; the parent is a self-cleaving ribozyme

For GGCAGAGCUCAACACAGCCUGGCAAACUGACUGUGGCUACACUGCC [G19C G27C G30A G40C], which self-cleavage is on record?
Its self-cleavage is 0.09.

For GGCAGAGCUCAACACAGCCUGGAAAAGUGGCUGUGGCGAGACUGCC [G19C C23A U38G], which self-cleavage is on record?
Its self-cleavage is 0.06.

Which self-cleavage does the source give for GGCAGAGCUCAACACAGCUUGGCAAAGUGGGUGUGGCUACACUGCC [G19U C31G G40C] here?
Its self-cleavage is 0.03.

Which self-cleavage does the source give for GGCAGAGCUCAACACAGCCAGGCAAAAUGGUUGUGGCUAGACUGCC [G19C U20A G27A C31U] here?
The self-cleavage was 0.28.

With GGCAGAGCUCAACACAGCCUGGCAAAGUUGCGGGGGCUAGACUGCC [G19C G29U U32G U34G] as the variant, how does the self-cleavage read?
The self-cleavage was 0.04.

With GGCAGAGCUCAACACAGCUUGGCAAUGGGGCUGUGGCUAGACUGCC [G19U A26U U28G] as the variant, how does the self-cleavage read?
The self-cleavage was 0.09.

For GGCAGAGCUCAACACAGCCGGGCAAAGUGGCUGUGGGUAGUCUGCC [G19C U20G C37G A41U], which self-cleavage is on record?
The self-cleavage was 0.01.

For GGCAGAGCUCAACACAGCCUGGUACAGUGGCUCUGGCAAGACUGCC [G19C C23U A25C G33C U38A], which self-cleavage is on record?
Its self-cleavage is 0.02.

Which self-cleavage does the source give for GGCAGAGCUCAACACAGCCUGGCAAAUUGGCUGUGACUACACUGCC [G19C G27U G36A G40C] here?
The self-cleavage was 0.16.

Which self-cleavage does the source give for GGCAGAGCUCAACACAGCCUGGCAAAUCGGCUGAGGCUAGACUGCC [G19C G27U U28C U34A] here?
The self-cleavage was 0.18.

With GGCAGAGCUCAACACAGCCUGGCAAAGUGGCUGUGGCUAGAGUGUC [G19C C42G C45U] as the variant, how does the self-cleavage read?
The self-cleavage was 0.02.

Which self-cleavage does the source give for GGCAGAGCUCAACACAGCUUGGCAAAGUGGCUGUGGCUAGCCUGAU [G19U A41C C45A C46U] here?
Its self-cleavage is 0.01.

With GGCAGAGCUCAACACAGCCUGGCAAAGUGGCCGUGGCUAGAUUGCC [G19C U32C C42U] as the variant, how does the self-cleavage read?
Its self-cleavage is 0.07.

With GGCAGAGCUCAACACAGCCGGGCAAAGUGGCUGUGGCUCGACUGCG [G19C U20G A39C C46G] as the variant, how does the self-cleavage read?
Its self-cleavage is 0.

Which self-cleavage does the source give for GGCAGAGCUCAACACAGCCUGGCAAAUUGGCCGUGGCGAGGCUGCC [G19C G27U U32C U38G A41G] here?
Its self-cleavage is 0.01.

For GGCAGAGCUCAACACAGCCUGGCAAAGUGGCUGAGGCUAGACUGCG [G19C U34A C46G], which self-cleavage is on record?
Its self-cleavage is 0.19.

Which self-cleavage does the source give for GGCAGAGCUCAACACAGCCUGGCAAAGUGGAGCUGGCUAGACUGUC [G19C C31A U32G G33C C45U] here?
The self-cleavage was 0.03.

Which self-cleavage does the source give for GGCAGAGCUCAACACAGCCUGGCAAAGUGUCUGUGGCUAGACUACC [G19C G30U G44A] here?
Its self-cleavage is 0.06.

For GGCAGAGCUCAACACAGCCUGGCAAAGUGGCUGUGGCCUGACUGCC [G19C U38C A39U], which self-cleavage is on record?
The self-cleavage was 0.07.

Which self-cleavage does the source give for GGCAGAGCUCAACACAGCCUGGCAAAGUGGCUGUGUCCAGACUGCC [G19C G36U U38C] here?
The self-cleavage was 0.02.

For GGCAGAGCUCAACACAGCCUGUCAAAGUGGCUGUGUCUAGACUGCC [G19C G22U G36U], which self-cleavage is on record?
Its self-cleavage is 0.03.

With GGCAGAGCUCAACACAGCCUGGCAAAGUGACUGUGGAUAGACUGCC [G19C G30A C37A] as the variant, how does the self-cleavage read?
Its self-cleavage is 0.03.

With GGCAGAGCUCAACACAGCCUGGCAAAGUCGCUGUUGCUAGACUGCC [G19C G29C G35U] as the variant, how does the self-cleavage read?
The self-cleavage was 0.08.

With GGCAGAGCUCAACACAGCCUGGCAAACUGUCUGUGGCUCGACUGCU [G19C G27C G30U A39C C46U] as the variant, how does the self-cleavage read?
Its self-cleavage is 0.36.

With GGCAGAGCUCAACACAGCCUGACAAAGUGGCUGUGGCUAGACUGGC [G19C G22A C45G] as the variant, how does the self-cleavage read?
Its self-cleavage is 0.13.

For GGCAGAGCUCAACACAGCCUGGCAAAGUGGGUGUGGCUAGAUUGCC [G19C C31G C42U], which self-cleavage is on record?
Its self-cleavage is 0.11.

For GGCAGAGCUCAACACAGCCUGGCAAAGUGGCGGUUGCUAGACUGCC [G19C U32G G35U], which self-cleavage is on record?
The self-cleavage was 0.06.

With GGCAGAGCUCAACACAGCCUGGCAAAGUGGCUGUGGCUAGAUUGUA [G19C C42U C45U C46A] as the variant, how does the self-cleavage read?
Its self-cleavage is 0.

With GGCAGAGCUCAACACAGCCUGGCAAAGUUGCUGUGGCUACAUUGCC [G19C G29U G40C C42U] as the variant, how does the self-cleavage read?
Its self-cleavage is 0.04.

For GGCAGAGCUCAACACAGCCUUGCAACGUGGCUGUGGCUACACUGCC [G19C G21U A26C G40C], which self-cleavage is on record?
The self-cleavage was 0.13.

For GGCAGAGCUCAACACAGCCGGGCACAGUGGCUGUGGGUAGACUGCC [G19C U20G A25C C37G], which self-cleavage is on record?
The self-cleavage was 0.

For GGCAGAGCUCAACACAGCCUGACAAAGUGGCUGUGGCUAGACUGCU [G19C G22A C46U], which self-cleavage is on record?
The self-cleavage was 0.5.

Which self-cleavage does the source give for GGCAGAGCUCAACACAGCUUGGCAAUUUGGCUGUGUCUAGACUGCG [G19U A26U G27U G36U C46G] here?
Its self-cleavage is 0.04.

With GGCAGAGCUCAACACAGCCAGGCAAAGUGGCUAUGGCUAGACUGCC [G19C U20A G33A] as the variant, how does the self-cleavage read?
Its self-cleavage is 0.04.

With GGCAGAGCUCAACACAGCCUGGCAAAAUGGCUUUGGCUAGACUGGC [G19C G27A G33U C45G] as the variant, how does the self-cleavage read?
Its self-cleavage is 0.04.

With GGCAGAGCUCAACACAGCUUGGCAAAGUGGAUGUGGCUAGACUGCA [G19U C31A C46A] as the variant, how does the self-cleavage read?
Its self-cleavage is 0.08.

Which self-cleavage does the source give for GGCAGAGCUCAACACAGCCUAGCAAAUUGGCUGUGGCUAGUCCGCC [G19C G21A G27U A41U U43C] here?
Its self-cleavage is 0.18.

Which self-cleavage does the source give for GGCAGAGCUCAACACAGCCUGACAAAGUGGCUGUGGCUAGCCUGCA [G19C G22A A41C C46A] here?
Its self-cleavage is 0.

Which self-cleavage does the source give for GGCAGAGCUCAACACAGCCUGCCAAAGUGGCUGUGGCUAGUCUGCC [G19C G22C A41U] here?
The self-cleavage was 0.09.

Which self-cleavage does the source give for GGCAGAGCUCAACACAGCUUGGCAAAGUGGCUGUGGCUGCACUGCC [G19U A39G G40C] here?
The self-cleavage was 0.08.

With GGCAGAGCUCAACACAGCCAGGCAAAAUGGCUGUGGCUAGACUGCC [G19C U20A G27A] as the variant, how does the self-cleavage read?
The self-cleavage was 0.37.

With GGCAGAGCUCAACACAGCUUGGCAAUGUGGCUGUGGCUAGAUUGCC [G19U A26U C42U] as the variant, how does the self-cleavage read?
Its self-cleavage is 0.11.

Which self-cleavage does the source give for GGCAGAGCUCAACACAGCCUCGGAAAGCGGCUGUGGCUAGACUGCC [G19C G21C C23G U28C] here?
The self-cleavage was 0.1.

With GGCAGAGCUCAACACAGCCUGGCAAAGUGGCUGCGGCUAGAUUAGC [G19C U34C C42U G44A C45G] as the variant, how does the self-cleavage read?
The self-cleavage was 0.01.

With GGCAGAGCUCAACACAGCCCGGCAAAGUGGUUGUGGCUAGACUGCC [G19C U20C C31U] as the variant, how does the self-cleavage read?
Its self-cleavage is 0.21.

With GGCAGAGCUCAACACAGCCUGGCAAAGUGGCUGUGGCGGGACUGCC [G19C U38G A39G] as the variant, how does the self-cleavage read?
Its self-cleavage is 0.

Which self-cleavage does the source give for GGCAGAGCUCAACACAGCCUGGCAAAGUGGCUGUGUCUAGAAUGCC [G19C G36U C42A] here?
The self-cleavage was 0.01.

With GGCAGAGCUCAACACAGCCUGGCAAAGUGGCUGUUUCUAGACUGCC [G19C G35U G36U] as the variant, how does the self-cleavage read?
Its self-cleavage is 0.3.

With GGCAGAGCUCAACACAGCCUGGCAAAGUGGUGGUGGCUAGACUGCC [G19C C31U U32G] as the variant, how does the self-cleavage read?
Its self-cleavage is 0.17.

Which self-cleavage does the source give for GGCAGAGCUCAACACAGCUUGGCAGAGUGGCUGUGGCUCGACUUCC [G19U A25G A39C G44U] here?
The self-cleavage was 0.01.

With GGCAGAGCUCAACACAGCUUGGAAACCUGGCUGUGGCUAGACUGCC [G19U C23A A26C G27C] as the variant, how does the self-cleavage read?
The self-cleavage was 0.34.

For GGCAGAGCUCAACACAGCCGGGCGAUGUGGCUGUCGCUAGACUGCC [G19C U20G A24G A26U G35C], which self-cleavage is on record?
The self-cleavage was 0.11.

With GGCAGAGCUCAACACAGCUUGGCAAAGUGGCUGUGGCUGGACUUCC [G19U A39G G44U] as the variant, how does the self-cleavage read?
Its self-cleavage is 0.1.

For GGCAGAGCUCAACACAGCCUGUGAAAGUGGCUGUGGCUAGACUGCC [G19C G22U C23G], which self-cleavage is on record?
Its self-cleavage is 0.61.

Which self-cleavage does the source give for GGCAGAGCUCAACACAGCCUGGCAAAGUGGCUGUGGGUAGACUGAC [G19C C37G C45A] here?
The self-cleavage was 0.01.

For GGCAGAGCUCAACACAGCCUGGCAAAGUGGCGGUGGCGAGACUGUC [G19C U32G U38G C45U], which self-cleavage is on record?
The self-cleavage was 0.03.
